# Measurements reported in publication PMC6212790.
# The list shows a part of the results. At the low end of the ranking, values are background and their order means little.
# Biological target: T1, GST-Rok-C97-191 (UniProt O34857)
# T1 sequence: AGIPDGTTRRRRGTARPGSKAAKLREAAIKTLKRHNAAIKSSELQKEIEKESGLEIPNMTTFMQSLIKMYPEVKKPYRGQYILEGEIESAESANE
# Assay: protein binding microarray;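 further: rank score from −0.5 (least bound) to 0.5 (best bound)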
# Settings: Rok is a gene silencer of Bacillus subtilis; high values mean tight binding; most listed sequences are background and not binding sites; double strand, one strand shown
row,Sequence,binding signal
1,CGGTTAGC,-0.121 E-score
2,TATCAACA,0.145 E-score
3,ATCCGTAC,0.0821 E-score
4,TCAAGTAA,0.165 E-score
5,AATGTCGT,-0.087 E-score
6,GAGTTCCA,-0.0619 E-score
7,GTTGGGAA,-0.000542 E-score
8,GAGGACAA,-0.0911 E-score
9,GGCGCTGA,-0.181 E-score
10,ACTTCGAG,-0.0256 E-score
11,CCCCCCCG,-0.197 E-score
12,CCGGTGAC,-0.192 E-score
13,CATTCCGA,-0.0936 E-score
14,GGTTAAGA,0.0752 E-score
15,AGAATTTG,0.161 E-score
16,CCCCGCGA,-0.24 E-score
17,GGTGGTAC,-0.0595 E-score
18,GATACTCC,0.118 E-score
19,GGGTGCAC,-0.234 E-score
20,GCAGGCCA,-0.453 E-score
21,GCAATTAA,0.155 E-score
22,GGTCTCAC,-0.0261 E-score
23,CTCGCCCA,-0.297 E-score
24,AATAAAGA,0.054 E-score

row,Sequence,binding signal
1,CACAAGCA,-0.0543 E-score
2,AATGTCGA,0.0236 E-score
3,CTAGAGTC,-0.0299 E-score
4,GCGACGAA,0.103 E-score
5,CTGTCCAC,-0.0896 E-score
6,GGCGATCA,0.0161 E-score
7,CTGATCGA,-0.0841 E-score
8,AGTGGTAG,0.378 E-score
9,AGGATGTG,-0.00613 E-score
10,AACTTAGT,0.299 E-score
11,AGGGTTCC,-0.181 E-score
12,ACATTTAG,0.146 E-score
13,CAGATGTA,0.212 E-score
14,TGCGGCCA,-0.0579 E-score
15,ATAAGGGC,-0.112 E-score
16,ACTATATA,0.437 E-score
17,AGGGGCCG,-0.404 E-score
18,CCCATGTC,-0.141 E-score
19,GATGCGGC,-0.254 E-score
20,AAATCAAC,0.139 E-score
21,AGAGTCAT,0.0549 E-score
22,ACGCGTAC,-0.161 E-score
23,CGCTGAAA,-0.0809 E-score
24,ACGTACAA,0.214 E-score

row,Sequence,binding signal
1,CTTATCCC,-0.0531 E-score
2,ATTGAAAG,-0.0548 E-score
3,CATGGTAA,0.206 E-score
4,CCTCAAAA,-0.175 E-score
5,AGGGGTAA,-0.0263 E-score
6,GTCGCCGA,-0.138 E-score
7,ACTGAGTC,-0.137 E-score
8,GAGCATCA,-0.097 E-score
9,CGCATGTA,0.0887 E-score
10,ATTCAAAC,0.00339 E-score
11,ATGAATCA,-0.0987 E-score
12,AAATCATA,0.164 E-score
13,ACTGTAGC,0.134 E-score
14,ATCTGAGA,-0.0965 E-score
15,ACAACCGA,0.0107 E-score
16,TGGAAAAA,0.14 E-score
17,AAGAGGCA,-0.199 E-score
18,AGAGGTTC,-0.316 E-score
19,TGATAAAA,0.282 E-score
20,GCCGTGAA,-0.176 E-score
21,CTCATGTC,-0.127 E-score
22,ATAAGTAA,0.236 E-score
23,AAAATATG,0.271 E-score
24,ATCATTTA,0.279 E-score

row,Sequence,binding signal
1,CAATAATA,0.312 E-score
2,CTATTACC,0.312 E-score
3,ACTCCGAA,0.0133 E-score
4,CCACGTCA,-0.0182 E-score
5,AGGGCACG,-0.437 E-score
6,CTGACGAA,-0.0673 E-score
7,GTGGGCGA,-0.102 E-score
8,ATAACGTC,0.17 E-score
9,CCGTCGAA,0.0267 E-score
10,AAGTAAAA,0.335 E-score
11,AGAAGAGC,-0.112 E-score
12,TTAGTAAA,0.21 E-score
13,ACTCTTCC,-0.0663 E-score
14,GCCCGCCC,-0.366 E-score
15,ACTTATGC,0.0362 E-score
16,CTAGCGTC,0.0675 E-score
17,GGGCAAGA,-0.0879 E-score
18,AGTTCCGA,0.0796 E-score
19,GCGTAAAC,0.0786 E-score
20,AAACCCGT,-0.109 E-score
21,ATGCAGCC,-0.133 E-score
22,CCATCGAC,-0.132 E-score
